Data as given in PubChem BioAssay AID1159614 (National Center for Advancing Translational Sciences (NCATS), 2016).
The whole screen tested about 45,000 compounds, of which about 65 (0.1%) were called active. The call rests on the fitted dose curve; in most records, active means well fitted activation curve with a large enough effect; inconclusive means small, poorly fitted or top-dose-only effect; inactive means no such curve, though single readings can be large or run the other way. Some of the results follow.

Biological target: Galactocerebrosidase (Homo sapiens) (UniProt P54803)
Chain of UniProt P54803 (P54803 whole entry, looked up): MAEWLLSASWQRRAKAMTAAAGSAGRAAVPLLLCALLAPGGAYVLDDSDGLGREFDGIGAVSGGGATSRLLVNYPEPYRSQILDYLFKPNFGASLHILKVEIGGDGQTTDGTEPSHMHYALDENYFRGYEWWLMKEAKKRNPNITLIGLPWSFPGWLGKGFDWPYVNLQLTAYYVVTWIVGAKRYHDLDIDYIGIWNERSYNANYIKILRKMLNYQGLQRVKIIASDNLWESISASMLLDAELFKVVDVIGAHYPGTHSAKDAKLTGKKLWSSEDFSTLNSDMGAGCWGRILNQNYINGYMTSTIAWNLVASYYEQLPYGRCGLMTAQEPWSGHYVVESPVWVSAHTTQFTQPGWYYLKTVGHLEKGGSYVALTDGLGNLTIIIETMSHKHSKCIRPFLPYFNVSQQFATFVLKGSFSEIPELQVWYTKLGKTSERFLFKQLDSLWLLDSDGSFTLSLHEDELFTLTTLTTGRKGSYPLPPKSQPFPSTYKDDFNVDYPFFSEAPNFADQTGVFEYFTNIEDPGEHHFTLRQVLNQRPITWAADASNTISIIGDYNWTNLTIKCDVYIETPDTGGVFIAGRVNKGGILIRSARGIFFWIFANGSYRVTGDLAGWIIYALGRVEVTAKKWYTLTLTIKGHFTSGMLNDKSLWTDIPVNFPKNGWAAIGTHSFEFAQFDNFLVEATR
Assay: A Novel Cell-Based Assay to Identify Small Molecules for B -Galactocerebrosidase; further: 0% is about no effect; nearly all actives have a fitted effect of over 65% in size
Conditions: 145M-Twi-hGALC-G270D cells (Twitcher mouse brain line with human GALC G270D), HMU-beta-Gal fluorescence, 48 h; series mostly up to 57.5 µM; activation: at the top concentration
Method in brief: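 Brain-derived Twitcher mouse 145M-Twi cells stably expressing human GALC-G270D or wild-type GALC, treated live, then residual GALC activity read by fluorescence of HMU-b-Gal substrate (0.1 mM final) in citrate-phosphate buffer pH 5.2 with sodium taurocholate. Signal increase indicates enhancement.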

activation, inactive:
COc1cccc(CNC(=O)C2CCN(Cc3cc4ccccc4n3Cc3ccc(C)cc3)CC2)c1 -17.8%, COc1ccc2oc(=O)c(C(=O)Nc3cccc(C(=O)O)c3)cc2c1 -8.99%, COCCNC(=O)Cn1nc(-c2ccc(C)cc2)c2ccccc2c1=O -5.66%, Cc1nc2cc(-c3cccc(F)c3)nn2c(C)c1CCC(=O)Nc1ccccc1C(N)=O 14.8%, Cc1cccc(NC(=O)c2ccc(CN3CC(=O)N4CCCCC4C3=O)cc2)c1C (configuration not stated) -7.98%, COc1cc(N)c(Cl)cc1C(=O)NC1CCN(CCCOc2ccc(F)cc2)CC1OC (configuration not stated) -13.4%, CCCCn1c(CCCNC(=O)c2cccc(C)c2)nc2ccccc21 -10.9%, Cc1ccc2oc(-c3cccc(NC(=O)c4cccc5c(Cl)cccc45)c3)nc2c1 -3.16%, COc1cccc(Cn2nnc3c(=O)[nH]c(C4CCCN(C(=O)c5ccccc5Cl)C4)nc32)c1 (configuration not stated) -10.2%, COc1ccc(CNc2nc(-c3ccc(Cl)cc3)cc(C(F)(F)F)n2)cc1 8.73%, COC(=O)c1c(-c2ccc(Cl)cc2)noc1N1CCN(c2ccccc2OC)CC1 -12.1%, COc1ccccc1S(=O)(=O)Cc1ccc(C(=O)N2CCN(c3cc(Cl)ccc3C)CC2)o1 -8.23%, CCc1ccccc1NC(=O)COCc1cc(-c2ccco2)on1 -4.15%, CCOc1ccc(OCC)c(NC(=O)C2CCN(S(=O)(=O)c3ccc4c(c3)CC(C)N4C(C)=O)CC2)c1 (configuration not stated) -0.507%, Cc1ccc(N2C(=O)[C@@H]3CSC(c4ccc(Cl)cc4)N3C2=O)cc1 (some centres not stated) -13.8%, Cc1ccc2occ(CC(=O)N(Cc3ccc(Cl)cc3)Cc3ccco3)c2c1 -7.32%, CCOc1ccc2c(c1)c(=O)c(C(=O)c1ccc(CC)cc1)cn2CC(=O)Nc1cccc(Cl)c1 1.13%, O=C(NCCc1ccccc1)c1ccc2nc(CCc3ccccc3)oc2c1 -18.9%, Cc1cc(C)c(Cn2c(=O)n(CCC(=O)NCc3ccc4c(c3)OCO4)c(=O)c3ccccc32)c(C)c1 -2.63%, Cc1ccc(-n2c(CCC(=O)O)ccc2-c2cccs2)cc1Cl -8.98%, Cc1cc(O)c(C(c2ccccc2)N2CCN(c3ccc(F)cc3)CC2)c(=O)n1Cc1ccco1 (configuration not stated) -14.7%, O=C(c1ccco1)N(Cc1cccs1)c1ccc(F)cc1 -19.3%, CC(C)OCCCN1C(=O)c2[nH]nc(-c3ccccc3O)c2C1c1ccccc1F (configuration not stated) -11%, Cc1noc(-c2ccccc2OCC(=O)Nc2ccccc2[N+](=O)[O-])n1 -23.7%, COc1cccc(CNC(=O)c2ccc(-n3c(C)cc4c3CCCC4)cc2)c1 -9.41%, COc1ccc(CNC(=O)c2sc3nc[nH]c(=O)c3c2C)cc1 -8.41%, CCOc1ccccc1N1CC(c2nc3ccccc3n2CCCOc2ccc(OC)cc2)CC1=O (configuration not stated) -15.4%, O=C(NCC1CCN(Cc2cccc(Cl)c2)CC1)Nc1ccc(F)c(Cl)c1 2.68%, Cc1cccc(OCc2cc(=O)n3c4c(sc3n2)CCCC4)c1C -17.9%, CCc1ccc(C(=O)CC2(O)C(=O)N(Cc3ccc(C)cc3)c3ccccc32)cc1 (configuration not stated) -16.6%, CC(C)c1nc2ccc(C(=O)NCc3ccccc3Br)cc2o1 -37.6%, CCc1ccccc1NC(=O)c1cc2nc(-c3ccc(Br)cc3)cc(C(F)(F)F)n2n1 0.686%, CC(C)(C)c1ccc(C(=O)N2CCCC(c3nc4c(nnn4Cc4cccc(F)c4)c(=O)[nH]3)C2)cc1 (configuration not stated) -13.1%, Cc1ccc(-c2cn3nc(N4CCCC(C(=O)NCc5ccc(F)cc5)C4)sc3n2)cc1 (configuration not stated) -10.8%, CCCCOc1ccccc1C(=O)N(Cc1sccc1C)C1CCS(=O)(=O)C1 (configuration not stated) -0.544%, CCN1CCSc2ccc(C(=O)NCc3cccc(Br)c3)cc21 7.51%, CCOc1ccc(NC(=O)CSc2c3c(nc4ccccc24)CCCC3)cc1 -7.95%, COc1ccc2cc(CNc3ccc(C)cc3)c(=O)n(CC(=O)Nc3ccc(C)cc3Cl)c2c1 -3.13%, Cc1ccc2nc(CN3CCN(S(=O)(=O)c4ccc(C(C)C)cc4)CC3)oc2c1 -12.2%, CN(C)CCCn1c(-c2ccc(Cl)cc2)csc1=Nc1ccccc1 -22.3%, COC(=O)c1ccc(NC(=O)CCn2cnnn2)c(C)c1 -11.2%, COc1ccc(N2CCN(Cc3nc4c(c(=O)n(C)c(=O)n4C)n3C(C)C)CC2)cc1 -14.6%, Cc1cc(C)cc(NC(=O)Cn2c(=O)n(-c3ccc(C)c(C)c3)c(=O)c3oc4ccccc4c32)c1 -0.0304%, CCCc1cc(N2CCN(c3ccccc3F)CC2)n2cnnc2n1 -7.69%, CCOC(=O)c1c(C)oc2nc(C)nc(NCCc3ccc(C)cc3)c12 -45.9%, COc1cc(NC(=O)CN2CCCN(Cc3cccc(F)c3)S2(=O)=O)cc(OC)c1 -17.8%, Cc1ccc(NC(=O)c2oc3ccc(S(=O)(=O)N(C)C4CCCCC4)cc3c2C)c(C)c1 -16.9%, COc1ccc(-c2nc(C)c(CCNC(=O)c3ccc(C(F)(F)F)cc3)s2)cc1OC -9.75%, CCOc1ccc(NC(=O)CSc2oc(-c3ccco3)nc2S(=O)(=O)c2ccccc2)cc1 -4.53%, CCCNC(=O)c1cc2n(n1)CCCN(Cc1ccc(C)cc1)C2=O -12.4%, CC1=C(C(=O)N2CCCCC2)C(c2ccc(Cl)cc2)n2c(nc3ccccc32)N1 (configuration not stated) -14.7%, Cc1ccc(CN2C(=O)c3ccccc3Sc3ccc(C(=O)N4CCOCC4)cc32)cc1 -12.2%, Cc1cccc(C(=O)Nc2ccc(N3CC=C(c4ccccc4C)CC3)c(C(=O)O)c2)c1 -11%, Cc1ccc(S(=O)(=O)Nc2cc(Cl)c3oc4c(c3c2)CCCC4)cc1 -4.41%, O=C(NCCc1ccccc1)c1ccc2c(c1)nc1n2CCOC1 -17.1%, CCOc1ccc(CNC(=O)CSc2c3c(nc4cc(Cl)ccc24)CCCC3)cc1 -10.7%, Cc1c(-c2nsc(NC(=O)c3cccs3)n2)nnn1-c1ccc(F)cc1 -24.5%, COc1ccccc1CNC(=O)CCS(=O)(=O)c1ccc2c(c1)oc(=O)n2C -7.71%, CCOC(=O)c1cccc(NC(=O)CSc2ncc3c(n2)-c2ccc(Cl)cc2N(Cc2ccccc2)S3(=O)=O)c1 10.9%, O=S(=O)(c1ccccc1)c1nc(-c2ccc(F)cc2)oc1NCc1ccccc1 -15.3%, O=C(COc1ccccc1F)Nc1ccc2nc(SCC(=O)N3CCOCC3)sc2c1 -3.36%, CC(C)(Oc1ccc(Cl)cc1)C(=O)OCCCOC(=O)C(C)(C)Oc1ccc(Cl)cc1 -11.6%
